Source: the supplement of paper PMC4604168 (melanoma cell lines)
This is one part of the list. Most values come without repeats; read them as rough.

Columns and labels:
Assay in all cases: cell count relative to DMSO control; melanoma cells; higher = more viable cells
Details in all cases: library dose: standard library concentration; 72 h
501Mel = test system: 501Mel
A101D = test system: A101D
A2058 = test system: A2058
A375 = test system: A375
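Further: cells treated in 1,536-well plates, then fixed and DAPI-stained, with nuclei counted from automated high-throughput microscope images.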

Row | SMILES | cell count (501Mel) [%] | cell count (A101D) [%] | cell count (A2058) [%] | cell count (A375) [%]
1 | CC1(C)CCC(c2ccc(Cl)cc2)=C(CN2CCN(c3ccc(C(=O)NS(=O)(=O)c4ccc(N[C@H](CCN5CCOCC5)CSc5ccccc5)c(S(=O)(=O)C(F)(F)F)c4)cc3)CC2)C1 + CC(C)CCN1c2nc(Nc3cc(F)c(O)c(F)c3)ncc2N(C)C(=O)C1C [BID1870] (first compound 2 µM, partner dose 1 µM) | 54.1 | 28.1 | 89.1 | 192
2 | Cc1ccc(Nc2nccc(N(C)c3ccc4c(C)n(C)nc4c3)n2)cc1S(N)(=O)=O [Pazopanib] + c1cc(-c2cnn3cc(-c4ccc(OCCN5CCCCC5)cc4)cnc23)ccn1 [Dorsomorphin] (first compound 2 µM, partner dose 2 µM) | 57.9 | 69.8 | 99.1 | 75.3
3 | O=C(/C=C/c1cccnc1)NCCCCC1CCN(C(=O)c2ccccc2)CC1 + O=C1NC(=O)/C(=C/c2ccc(-c3ccc(F)cc3O)o2)S1 [AS252424] (first compound 0.05 µM, partner dose 5 µM) | 63.3 | 109 | 94.7 | 120
4 | Cc1ccc(Nc2nccc(N(C)c3ccc4c(C)n(C)nc4c3)n2)cc1S(N)(=O)=O [Pazopanib] + CCCCCCCCCCCC1=C(O)C(=O)C=C(O)C1=O [Embelin] (first compound 2 µM, partner dose 6 µM) | 69.9 | 90.9 | 86.4 | 121
5 | Cc1ccc(Nc2nccc(N(C)c3ccc4c(C)n(C)nc4c3)n2)cc1S(N)(=O)=O [Pazopanib] + O=c1cc(-c2cccc3c2Sc2ccccc2S3)oc(N2CCOCC2)c1 [KU55933] (first compound 2 µM, partner dose 5 µM) | 124 | 75.4 | 105 | 105
6 | Cc1ccc(Nc2nccc(N(C)c3ccc4c(C)n(C)nc4c3)n2)cc1S(N)(=O)=O [Pazopanib] + CCc1ccc(CCOc2ccc(CC3SC(=O)NC3=O)cc2)nc1 [pioglitazone] (first compound 2 µM, partner dose 10 µM) | 69.6 | 89.9 | 103 | 104
7 | Cc1ccc(Nc2nccc(N(C)c3ccc4c(C)n(C)nc4c3)n2)cc1S(N)(=O)=O [Pazopanib] + Cn1cc(/C=C2\C(=O)Nc3cccnc32)c2ccccc21 [GW441756] (first compound 2 µM, partner dose 2 µM) | 68.2 | 81.7 | 130 | 148
8 | CC1(C)CCC(c2ccc(Cl)cc2)=C(CN2CCN(c3ccc(C(=O)NS(=O)(=O)c4ccc(N[C@H](CCN5CCOCC5)CSc5ccccc5)c(S(=O)(=O)C(F)(F)F)c4)cc3)CC2)C1 + COC(=O)c1sccc1S(=O)(=O)Nc1ccc(Nc2ccccc2)cc1OC [GSK0660] (first compound 2 µM, partner dose 5 µM) | 92 | 45.9 | 105 | 76.6
9 | Cc1ccc(Nc2nccc(N(C)c3ccc4c(C)n(C)nc4c3)n2)cc1S(N)(=O)=O [Pazopanib] + Oc1nc(-c2ccc(C(F)(F)F)cc2)nc2c1CSCC2 [XAV939] (first compound 2 µM, partner dose 10 µM) | 71.6 | 74.4 | 69.9 | 83.4
10 | O=C(/C=C/c1cccnc1)NCCCCC1CCN(C(=O)c2ccccc2)CC1 + N#Cc1c(O)c2c(-c3ccc(-c4ccccc4O)cc3)csc2[nH]c1=O [A769662] (first compound 0.05 µM, partner dose 10 µM) | 71.3 | 68.6 | 97.3 | 151
11 | Cc1ccc(Nc2nccc(N(C)c3ccc4c(C)n(C)nc4c3)n2)cc1S(N)(=O)=O [Pazopanib] + COc1cc2ncnc(Nc3ccc(Oc4ccccc4)cc3)c2cc1OC [SrcI1] (first compound 2 µM, partner dose 10 µM) | 61.8 | 50.6 | 77.8 | 122
12 | Cc1ccc(Nc2nccc(N(C)c3ccc4c(C)n(C)nc4c3)n2)cc1S(N)(=O)=O [Pazopanib] + COc1ccc(COc2ccc(Cc3cnc(N)nc3N)cc2OC)cc1 [GW2580] (first compound 2 µM, partner dose 5 µM) | 75.7 | 73.4 | 105 | 67.5
13 | Cc1ccc(Nc2nccc(N(C)c3ccc4c(C)n(C)nc4c3)n2)cc1S(N)(=O)=O [Pazopanib] + Oc1cc(-c2nc(-c3ccccc3)[nH]c2-c2ccncc2)ccc1Cl [L779450] (first compound 2 µM, partner dose 1 µM) | 74.3 | 63.4 | 89.8 | 80.4
14 | O=C(/C=C/c1cccnc1)NCCCCC1CCN(C(=O)c2ccccc2)CC1 + O=C(Nc1ccccc1)c1cc([N+](=O)[O-])ccc1Cl [GW9662] (first compound 0.05 µM, partner dose 10 µM) | 69.7 | 75.9 | 119 | 147
15 | O=C(/C=C/c1cccnc1)NCCCCC1CCN(C(=O)c2ccccc2)CC1 + CC(C)CCN1c2nc(Nc3cc(F)c(O)c(F)c3)ncc2N(C)C(=O)C1C [BID1870] (first compound 0.05 µM, partner dose 1 µM) | 63.2 | 68.5 | 96.6 | 97.8
16 | CC1(C)CCC(c2ccc(Cl)cc2)=C(CN2CCN(c3ccc(C(=O)NS(=O)(=O)c4ccc(N[C@H](CCN5CCOCC5)CSc5ccccc5)c(S(=O)(=O)C(F)(F)F)c4)cc3)CC2)C1 + N#Cc1c(O)c2c(-c3ccc(-c4ccccc4O)cc3)csc2[nH]c1=O [A769662] (first compound 2 µM, partner dose 10 µM) | 100 | 38.7 | 108 | 66.1
17 | CC1(C)CCC(c2ccc(Cl)cc2)=C(CN2CCN(c3ccc(C(=O)NS(=O)(=O)c4ccc(N[C@H](CCN5CCOCC5)CSc5ccccc5)c(S(=O)(=O)C(F)(F)F)c4)cc3)CC2)C1 + COc1cc(N2CCC(N3CCN(C)CC3)CC2)ccc1Nc1ncc(Cl)c(Nc2ccccc2S(=O)(=O)C(C)C)n1 [NVP-TAE684] (first compound 2 µM, partner dose 0.4 µM) | 71.5 | 28.5 | 42.3 | 54.5
18 | O=C(/C=C/c1cccnc1)NCCCCC1CCN(C(=O)c2ccccc2)CC1 + COc1ccc2c(c1)CCC1C2CCC2(C)C(NCCCCCCN3C(=O)C=CC3=O)CCC12 [U73122] (first compound 0.05 µM, partner dose 2 µM) | 82.7 | 64.6 | 51.4 | 81.4
19 | CC1(C)CCC(c2ccc(Cl)cc2)=C(CN2CCN(c3ccc(C(=O)NS(=O)(=O)c4ccc(N[C@H](CCN5CCOCC5)CSc5ccccc5)c(S(=O)(=O)C(F)(F)F)c4)cc3)CC2)C1 + O=S(=O)(c1ccccc1)N(CC(F)(F)F)c1ccc(C(O)(C(F)(F)F)C(F)(F)F)cc1 [T0901317] (first compound 2 µM, partner dose 7 µM) | 52.3 | 36.2 | 90.3 | 50.1
20 | O=C(/C=C/c1cccnc1)NCCCCC1CCN(C(=O)c2ccccc2)CC1 + Cc1cc([N+](=O)[O-])ccc1NS(=O)(=O)c1cc(Cl)ccc1Cl [FH535] (first compound 0.05 µM, partner dose 5 µM) | 91.8 | 68.3 | 81 | 95.2
21 | Cc1ccc(Nc2nccc(N(C)c3ccc4c(C)n(C)nc4c3)n2)cc1S(N)(=O)=O [Pazopanib] + Cc1cc([N+](=O)[O-])ccc1NS(=O)(=O)c1cc(Cl)ccc1Cl [FH535] (first compound 2 µM, partner dose 5 µM) | 68.3 | 52.7 | 62.2 | 87.1
22 | CC1(C)CCC(c2ccc(Cl)cc2)=C(CN2CCN(c3ccc(C(=O)NS(=O)(=O)c4ccc(N[C@H](CCN5CCOCC5)CSc5ccccc5)c(S(=O)(=O)C(F)(F)F)c4)cc3)CC2)C1 + O=C(O)C(=O)Nc1sc2c(c1C(=O)O)CCNC2 [TCS401] (first compound 2 µM, partner dose 8.33333 µM) | 102 | 49.5 | 102 | 87.2
23 | CC1(C)CCC(c2ccc(Cl)cc2)=C(CN2CCN(c3ccc(C(=O)NS(=O)(=O)c4ccc(N[C@H](CCN5CCOCC5)CSc5ccccc5)c(S(=O)(=O)C(F)(F)F)c4)cc3)CC2)C1 + COc1cc2ncnc(Nc3ccc(Oc4ccccc4)cc3)c2cc1OC [SrcI1] (first compound 2 µM, partner dose 10 µM) | 74 | 41.4 | 92.4 | 68.2
24 | CC1(C)CCC(c2ccc(Cl)cc2)=C(CN2CCN(c3ccc(C(=O)NS(=O)(=O)c4ccc(N[C@H](CCN5CCOCC5)CSc5ccccc5)c(S(=O)(=O)C(F)(F)F)c4)cc3)CC2)C1 + Cn1cc(/C=C2\C(=O)Nc3cccnc32)c2ccccc21 [GW441756] (first compound 2 µM, partner dose 2 µM) | 71 | 48.1 | 107 | 120
